Experimental data published in the supplement of paper PMC6531468.
This is one part of the list. Values come from read counts of a selection and are noisy. Scores sum up all selected molecules that hold the word; the word was not tested alone.

What was measured:
Assay in all cases: 6-mer SELEX enrichment z-score vs GST control; IMP3 is the RNA-binding protein IGF2BP3; higher = more enriched by binding
IMP3 KH1-4 = conditions: construct: KH1-4 (164-579); SELEX round: R4
Description: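 SELEX-seq with GST-tagged IMP3 KH1-4 (Pro164-Lys579) and an N40 RNA pool, round 4. 6-mer z-score of sequence-tag enrichment normalised to the corresponding GST SELEX round; RNA k-mers written as DNA (T for U).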

IMP3 RRM1-2 = conditions: construct: RRM1-2 (1-163); SELEX round: R2
Description: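 SELEX-seq with GST-tagged IMP3 RRM1-2 (Met1-Asn163) and an N40 RNA pool, round 2. 6-mer enrichment z-score normalised to GST SELEX. RNA written as DNA (T = U).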

IMP3 full-length = IMP3 full-length (UniProt O00425); conditions: construct: FL IMP3 (1-579); SELEX round: R4
Description: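 SELEX-seq with GST-tagged full-length IMP3 and an N40 RNA pool, round 4. Each 6-mer is scored as an enrichment z-score of sequence tags containing it, normalised to the matching GST SELEX round. RNA written as DNA (T = U).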

IMP3 KH1-2 = conditions: construct: KH1-2 (164-376); SELEX round: R4
Description: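 SELEX-seq with GST-tagged IMP3 KH1-2 (Pro164-Phe376) and an N40 RNA pool, round 4 (stringent 300/600 mM KCl washes). 6-mer z-score of sequence-tag enrichment normalised to the corresponding GST SELEX round; RNA k-mers written as DNA (T for U).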

IMP3 KH3-4 = conditions: construct: KH3-4 (377-579); SELEX round: R4
Description: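 SELEX-seq with GST-tagged IMP3 KH3-4 (Pro377-Lys579) and an N40 RNA pool, round 4. 6-mer z-score of sequence-tag enrichment normalised to the corresponding GST SELEX round; RNA k-mers written as DNA (T for U).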

IMP3 KH3-4, sequence (chain, as listed by the source): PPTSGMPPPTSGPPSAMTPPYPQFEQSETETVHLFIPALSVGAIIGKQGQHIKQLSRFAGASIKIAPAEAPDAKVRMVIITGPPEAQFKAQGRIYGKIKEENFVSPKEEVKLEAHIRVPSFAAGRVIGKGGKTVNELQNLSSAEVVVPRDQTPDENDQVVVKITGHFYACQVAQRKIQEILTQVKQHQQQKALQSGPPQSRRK
IMP3 KH1-2, sequence (chain, as listed by the source): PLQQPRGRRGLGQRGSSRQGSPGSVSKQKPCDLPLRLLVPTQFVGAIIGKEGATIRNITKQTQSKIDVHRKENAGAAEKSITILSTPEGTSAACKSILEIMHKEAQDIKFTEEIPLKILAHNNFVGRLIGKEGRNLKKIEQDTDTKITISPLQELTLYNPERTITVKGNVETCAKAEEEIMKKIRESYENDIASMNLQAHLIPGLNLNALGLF
IMP3 KH1-4, sequence (chain, as listed by the source): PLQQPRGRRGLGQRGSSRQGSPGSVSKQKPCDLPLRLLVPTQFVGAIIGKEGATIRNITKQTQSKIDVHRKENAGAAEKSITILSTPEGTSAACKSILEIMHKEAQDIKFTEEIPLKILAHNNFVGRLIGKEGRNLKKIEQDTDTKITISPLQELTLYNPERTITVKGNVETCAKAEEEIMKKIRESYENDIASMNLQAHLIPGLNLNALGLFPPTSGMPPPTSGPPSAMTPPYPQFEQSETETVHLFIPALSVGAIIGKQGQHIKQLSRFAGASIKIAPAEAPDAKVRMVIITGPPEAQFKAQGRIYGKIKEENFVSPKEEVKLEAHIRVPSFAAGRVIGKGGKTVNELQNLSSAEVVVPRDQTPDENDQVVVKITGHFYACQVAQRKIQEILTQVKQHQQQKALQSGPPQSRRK
IMP3 RRM1-2, sequence (chain, as listed by the source): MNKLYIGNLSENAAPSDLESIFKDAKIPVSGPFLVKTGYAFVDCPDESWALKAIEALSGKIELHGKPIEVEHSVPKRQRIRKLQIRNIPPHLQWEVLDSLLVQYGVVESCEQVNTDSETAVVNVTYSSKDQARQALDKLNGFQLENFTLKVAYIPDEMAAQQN
UniProt O00425, sequence (O00425 whole entry): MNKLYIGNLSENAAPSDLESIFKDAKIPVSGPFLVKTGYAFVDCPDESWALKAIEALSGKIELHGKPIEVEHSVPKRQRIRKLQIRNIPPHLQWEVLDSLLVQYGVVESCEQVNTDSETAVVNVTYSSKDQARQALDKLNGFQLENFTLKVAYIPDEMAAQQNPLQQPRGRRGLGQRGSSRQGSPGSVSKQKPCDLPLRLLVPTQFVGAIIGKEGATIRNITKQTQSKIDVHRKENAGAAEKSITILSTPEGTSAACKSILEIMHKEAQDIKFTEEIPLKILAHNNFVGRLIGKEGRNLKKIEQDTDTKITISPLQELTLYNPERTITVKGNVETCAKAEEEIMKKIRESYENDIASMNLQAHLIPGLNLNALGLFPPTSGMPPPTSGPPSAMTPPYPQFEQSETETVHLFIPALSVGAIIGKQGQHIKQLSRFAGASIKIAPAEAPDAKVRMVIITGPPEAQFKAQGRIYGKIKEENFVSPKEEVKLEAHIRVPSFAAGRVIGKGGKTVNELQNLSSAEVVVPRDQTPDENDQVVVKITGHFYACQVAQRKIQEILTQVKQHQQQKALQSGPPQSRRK

Row | Sequence | 6-mer SELEX enrichment z-score (IMP3 KH1-4) | 6-mer SELEX enrichment z-score (IMP3 RRM1-2) | 6-mer SELEX enrichment z-score (IMP3 full-length) | 6-mer SELEX enrichment z-score (IMP3 KH1-2) | 6-mer SELEX enrichment z-score (IMP3 KH3-4)
1 | GCAGGT | 0.371 | 0.391 | 0.616 | 0.302 | 0.262
2 | CAGGGT | 0.151 | 0.325 | 0.565 | 0.199 | 0.257
3 | TTCGAC | -0.979 | 0.005 | -0.555 | -0.905 | -0.958
4 | GATCTC | -0.44 | 0.262 | -0.055 | -0.352 | -0.449
5 | CCAAAA | -3.37 | -2.4 | -3.63 | -3.21 | -3.41
6 | GGAACG | -0.044 | -0.946 | -0.155 | -0.137 | -0.187
7 | CACGCT | 0.198 | 0.373 | 0.393 | 0.305 | -0.131
8 | CCGGCT | 0.011 | 0.21 | 0.473 | -0.006 | 0.088
9 | GGTGAG | 0.375 | -0.139 | 0.364 | 0.46 | 0.536
10 | AGTGAC | -0.248 | -0.309 | -0.32 | -0.385 | -0.368
11 | ATCAAA | 0.24 | 1.16 | 0.864 | 0.352 | 0.439
12 | TCAAAT | 0.31 | 0.412 | 0.334 | 0.418 | 0.465
13 | CACATG | 1.76 | 1.91 | 2.23 | 1.41 | 1.08
14 | GAACCT | -1.35 | -0.958 | -1.49 | -1.3 | -1.46
15 | GGCCTA | -0.02 | -0.156 | 0.174 | 0.057 | 0.302
16 | CGCACA | 1.7 | 1.58 | 2.21 | 1.77 | 0.744
17 | AGCTGA | -0.988 | -0.406 | -0.619 | -0.919 | -0.818
18 | TTCTTA | 0.581 | 0.365 | 0.235 | 0.574 | 0.689
19 | AAATTG | 0.02 | -1.1 | -1.03 | -0.19 | 0.594
20 | TTTGAT | 0.708 | 0.109 | 0.039 | 0.496 | 1.03
21 | TCCCCG | -0.322 | -0.535 | -0.31 | -0.246 | -1.01
22 | AAGACC | -1.57 | -1.84 | -2.01 | -1.36 | -1.73
23 | GGGCCG | -0.069 | -0.24 | 0.646 | 0.441 | 0.125
24 | ATTCAT | 2.02 | 1.95 | 2.22 | 2.09 | 1.8
25 | GTGTCA | -0.457 | 0.284 | 0.132 | -0.424 | -0.34
26 | CTGATT | 0.57 | -0.007 | -0.111 | 0.47 | 0.5
27 | TTTACC | -0.225 | -0.27 | -0.588 | -0.211 | -0.354
28 | AGCCAC | -0.108 | 0.132 | 0.321 | -0.172 | -0.687

Row | Sequence | 6-mer SELEX enrichment z-score (IMP3 KH1-4) | 6-mer SELEX enrichment z-score (IMP3 RRM1-2) | 6-mer SELEX enrichment z-score (IMP3 full-length) | 6-mer SELEX enrichment z-score (IMP3 KH1-2) | 6-mer SELEX enrichment z-score (IMP3 KH3-4)
29 | TAGACG | -0.443 | -0.527 | -0.317 | -0.393 | -0.233
30 | CGCTCG | -0.765 | 0.284 | 0.148 | -0.571 | -0.585
31 | CCTGAC | -1.49 | -0.955 | -1.53 | -1.29 | -1.7
32 | GGACTT | 0.002 | -0.055 | -0.188 | -0.106 | 0.043
33 | TTATCA | 1.26 | 0.996 | 0.923 | 1.36 | 1.34
34 | TCACCG | 0.017 | 0.286 | 0.652 | 0.134 | -0.612
35 | ACCAAC | -1.52 | 0.42 | -1.3 | -1.17 | -2.23
36 | AAATCA | 0.787 | 2.37 | 1.33 | 0.784 | 0.94
37 | GGCTCT | 0.006 | 0.611 | 0.455 | 0.091 | 0.176
38 | TTTAGC | 0.062 | 0.251 | -0.108 | 0.025 | 0.248
39 | ACTACT | 0.458 | 0.259 | -0.368 | 0.605 | 0.398
40 | CAACAG | -0.43 | 2.67 | 1.85 | -0.103 | -0.654
41 | AATTGT | 0.576 | -0.342 | -0.238 | 0.237 | 0.76
42 | CAACTA | 0.73 | 0.253 | -0.099 | 0.779 | 0.576
43 | CGTACG | -1.48 | -0.297 | -0.723 | -1.41 | -1.44
44 | TTATTT | 1.31 | 0.458 | 0.432 | 1.15 | 1.72
45 | GAGGCT | 0.28 | 0.18 | 0.404 | 0.287 | 0.457
46 | CGTTCA | 0.015 | 0.597 | 0.586 | 0.071 | -0.153
47 | GTGCAT | 0.571 | 0.49 | 0.781 | 0.344 | 0.387
48 | GCTAGA | -0.308 | -0.209 | -0.296 | -0.306 | -0.097
49 | CATAAG | 0.681 | 0.428 | 0.795 | 0.643 | 0.856
50 | ATAGTT | 0.273 | 0.364 | 0.122 | 0.168 | 0.419
51 | GACCTC | -0.974 | -0.45 | -0.796 | -0.839 | -1.18
52 | ATTCGC | 0.61 | 0.142 | 0.219 | 0.508 | 0.389
53 | TACATT | 1.79 | 1.15 | 1.38 | 2.01 | 1.92
54 | GCGGCG | 0.556 | 0.299 | 1.28 | 0.487 | 0.706
55 | GGTTTG | 0.011 | 0.338 | 0.002 | 0.031 | 0.222
